Experimental findings from ChEMBL document CHEMBL4888484, “Replenishing the malaria drug discovery pipeline: Screening and hit evaluation of the MMV Hit Generation Library 1 (HGL1) against asexual blood stage Plasmodium falciparum ,using a nano luciferase reporter read-out” (2022) are described below.

In all, about 150,000 compounds went through this assay and about 540 (0.36%) showed an effect of 50% or more. This is one part of the list.

The experiment has as its system Plasmodium falciparum. Briefly: Primary screen in NF54 nanoGlo assay, in single point, at 2uM, 72h; a lower Z score goes with more inhibition. The class given is functional, Erythrocyte. The following applies: timepoint 72 hour.
One may read the % Inhibition as the relative decrease from the control value, in per cent. `O=C(COC(=O)c1c(F)cccc1F)NC(=O)NC1CCCC1`: the “% Inhibition” value was 6% and the Z score is listed as -0.95.
On the same counts, the results for `CN(C)c1ccc(C[C@@H]2C(=O)Nc3ccc(Br)cc32)cc1` are -25% and 2.21.
On the same counts, the results for `Cc1nn(C)c2nc(N3CCN(c4cnccn4)CC3)sc12` are -1% and 0.27.
For `Cc1c(O)cccc1C(=O)N1CCN(C(=O)CC(C)C)[C@@H]2CS(=O)(=O)C[C@@H]21`, the “% Inhibition” value was -12% and the Z score is 1.34.
On the same counts, the results for `CCCn1ccnc1-c1cn(Cc2cc3ccccc3[nH]2)nn1` are 41% and -7.14.
On the same counts, the results for `CCc1ccccc1C(=O)N[C@H](C(=O)OC)C(C)C` are -14% and 1.61.
For `c1nc2c(c(Oc3ccc(-c4nnco4)cc3)n1)CCCC2`, the “% Inhibition” value is reported as -13% and the Z score stood at 1.48.
On the same counts, the results for `Cc1cccc(C(=O)N2CCCS2(=O)=O)n1` are -8% and 1.07.
On the same counts, the results for `Cc1ccc(-n2c(=O)c3ccccc3n(CC(=O)NCc3cccnc3)c2=O)cc1C` are -5% and 0.98.
On the same counts, the results for `CCC(=O)N(Cc1csc(COc2c(OC)cccc2OC)n1)C1CC1` are -4% and 0.72.
With `CC1CCCCC1NC1=C(C(=O)N2CCOCC2)S(=O)(=O)c2ccccc21` (stereo unspecified), the “% Inhibition” value is -4% and the Z score was determined as 0.64.
On the same counts, the results for `O=C1CN(C(=O)Cc2cc3ccccc3s2)CCN1CCO` are 1% and -0.15.
Take `CCNC(=O)N[C@H]1CCN(C2CCCCCC2)C1`: the “% Inhibition” value is reported as 1% and the Z score is -0.09.
On the same counts, the results for `CC(=O)NCc1ccc(-c2ccnc(C)c2)nc1` are 3% and -0.4.
On the same counts, the results for `O=C1C(N2C(=O)[C@H]3CCCN3C2=O)CCN1c1ccccc1` (stereo partly specified) are 1% and -0.08.
On the same counts, the results for `CCOc1ccc(-c2ccnc3c(C(=O)NCCc4c[nH]c5ccc(OC)cc45)cnn23)cc1` are 22% and 0.3.
`Cc1ccc(-n2nnc(C(=O)N3CCC(c4nc5ccccc5o4)CC3)c2C(C)C)cc1`: the “% Inhibition” value came to 7% and the Z score is recorded as -0.89.
With `CN1C(=O)Cc2cc(S(=O)(=O)CCC(=O)N3CCn4c3nc3ccccc34)ccc21`, the “% Inhibition” value is -16% and the Z score amounted to 2.13.
On the same counts, the results for `Cc1nc([C@H]2CC23CCN(S(=O)(=O)N(C)C)CC3)no1` are -15% and 2.23.
On the same counts, the results for `CCN(CC1CCN(C2CCN(C)CC2)CC1)C(=O)CCC(=O)c1ccccc1` are 4% and -0.76.
Regarding `O=C(NCCc1cn[nH]c1)c1cccc(F)c1F`, the “% Inhibition” value was -7% and the Z score came out at 1.28.
On the same counts, the results for `CCC[C@@H](C(=O)NCc1cccnc1-n1ccnc1)c1ccccn1` are -7% and 0.65.
On the same counts, the results for `CC1(C)CC2(CO1)CC(NC(=O)N[C@H]1C[C@H](c3cccc(F)c3)C1)C2` (stereo partly specified) are -5% and 0.63.
On the same counts, the results for `CCOc1ccc(CN[C@H]2CCCO[C@@H]2c2nccn2CC)nc1` are -6% and 0.59.
Take `Cc1cccc2nc(-c3cccnc3)c(NC3CCCCC3)n12`: the “% Inhibition” value was -5% and the Z score came out at 0.78.
On the same counts, the results for `Cc1c([C@@H](C)NC(=O)N2CCC(c3nncn3C)CC2)oc2ccccc12` are -10% and 1.85.
On the same counts, the results for `CC(C)CCN1C[C@]2(CCCN(C(=O)c3cc[nH]n3)C2)CCC1=O` are 4% and -0.57.
On the same counts, the results for `CCn1nc(CN2CCC[C@H](NC(=O)c3ccc(F)c(F)c3)C2)c2c1CCOC2` are -7% and 0.61.
For the molecule `COc1cc2c(cc1NC(=O)N1CCC(F)(F)CC1)n(C)c(=O)n2C`, the “% Inhibition” value is given as 0% and the Z score is 0.05.
On the same counts, the results for `CN1C[C@@H](NC(=O)CCc2cncs2)CCC1=O` are -5% and 0.69.
On the same counts, the results for `CC1(C)CC(=O)C(C(=O)Nc2ccc(Cl)c(Cl)c2)C(=O)C1` are -5% and 0.88.
On the same counts, the results for `O=C(CCCS(=O)(=O)Nc1ccccc1)Nc1ccccc1` are -3% and 0.46.
For the molecule `CCn1cc(CN(CCO)c2ccc(C(F)(F)F)c(C#N)n2)cn1`, the “% Inhibition” value came out at 15% and the Z score was -1.56.
On the same counts, the results for `Cc1cc(C(=O)Nc2ccc(-n3ccnc3-c3ccncc3)cc2)co1` are -16% and 2.07.
On the same counts, the results for `O=C(Cn1c(=O)c2cc(C3CC3)nn2c2ncccc21)NCc1ccc2c(c1)OCO2` are 4% and -0.68.
Regarding `CC(CS(C)(=O)=O)NC(=O)N1CCCC2CCCC21` (stereo unspecified), the “% Inhibition” value is given as -7% and the Z score came out at 1.08.
On the same counts, the results for `CO[C@@H](C)CS(=O)(=O)Nc1ccnc(C#N)c1` are 1% and -0.13.
On the same counts, the results for `COc1cccc(CNC(=O)CCc2nc(N3CCCCCC3)c3c(C)noc3n2)c1` are 16% and -2.44.
On the same counts, the results for `CNC(=O)[C@H]1CCN(c2ncc(Cl)cn2)C1` are 1% and -0.13.
`CCC(c1ccccc1)N1Cc2cc(NS(=O)(=O)c3ccc(F)cc3)ccc2OC(C)C1=O` (stereo unspecified): the “% Inhibition” value stood at 11% and the Z score is given as -2.08.
On to `CCOc1ccc([C@@H]2OC(Cc3n[nH]c(=O)[nH]c3=O)=NN2C(C)=O)cc1OC`, for which the “% Inhibition” value is given as 0% and the Z score was 0.09.
With `CO[C@H]1[C@H](NC(=O)c2ccco2)c2ccccc2C12CCN(Cc1nccn1-c1cccc(C)c1)CC2`, the “% Inhibition” value is -11% and the Z score was 1.58.
On the same counts, the results for `C[C@H](NC(=O)c1ccc(F)cc1)c1noc(Cc2ccccc2)n1` are -3% and 0.35.
On the same counts, the results for `CCOc1ccc(C(=O)OCC(=O)N[C@@H](C)c2ccc3c(c2)OCCO3)cc1OC` are -8% and 1.08.
In the case of `CN(Cc1nccs1)C(=O)Nc1ccn(Cc2ccncc2)n1`, the “% Inhibition” value was -5% and the Z score is recorded as 0.56.
For `CCCN1CCCn2nc(CNC(=O)c3ccnc4ccc(C)cc34)cc2C1`, the “% Inhibition” value is listed as 1% and the Z score is on record as -0.13.
For the molecule `CCc1nc(CC)n(CC(=O)Nc2ccnn2C2CCCC2)n1`, the “% Inhibition” value is given as -3% and the Z score turned out to be 0.5.
`O=C(CNC(=O)N1CCCCCC1)N1CCc2ccccc2C1`: the “% Inhibition” value is recorded as -2% and the Z score was found to be 0.32.
On the same counts, the results for `N#Cc1ccccc1NC(=O)c1cccn2c(-c3ccccc3F)nnc12` are -3% and 0.42.
On the same counts, the results for `Cc1ccc(-n2[nH]c(C(=O)NCC3(C(F)(F)F)CC3)cc2=O)cc1` are -5% and 0.62.
On the same counts, the results for `COC[C@@H]1[C@H](NC(=O)c2ccc(OC)c(C)c2)[C@H]2CCO[C@H]21` are -9% and 1.68.
Consider `COc1cc(=O)n(-c2ccccc2)cc1C(=O)N1CCC(Oc2cccc3cccnc23)CC1`, for which the “% Inhibition” value was -9% and the Z score is 1.71.
On the same counts, the results for `O=C(Nc1cccc2c1CCCC2)[C@H]1CCS(=O)(=O)C1` are -15% and 1.38.
